From the RNAGym collection of RNA variant scans (doi:10.1093/nar/gkz1192)
Read counts are not given, so values of variants with three or more changes are uncertain.

B1: CPEB3 Ribozyme (parent)
chain: UAACAGGGGGCCACAGCAGAAGCGUUCACGUCGCAGCCCCUGUCAGAUUCUGGUGAAUCUGCGAAUUCUGCUGUAUAUCUC

Variants of: B1
Experiment: self-cleavage, relative activity (ratio to wild type); higher = more cleavage; in vitro, sequencing
Outline: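 Libraries of CPEB3 self-cleaving ribozyme mutants came from rounds of error-prone PCR and carried barcodes, which DNA sequencing matched to variants. In vitro transcription used T7 RNA polymerase at 37°C for 5 hours, with a further 15 min in DNase I before EDTA stopped the reaction; the ribozymes cleaved during both steps. The RNA was reverse transcribed with template switching and sequenced on Illumina. Relative activity is the cleaved/total read fraction of a variant divided by that of the unmutated ribozyme, averaged over three batches with at least 5 reads.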
In the case of A15G C38U U41C, the self-cleavage is reported as 0.92. A15G C38U U48A U74A showed a self-cleavage of 0.42. For A15G C38U U49C U60C U72A U80A, the self-cleavage was 0.06. With A15G C38U U69C the self-cleavage was 0.19. For A15G C39A A47G U66C A77U, the self-cleavage was 0.08. A15G C39A G73A A77G showed a self-cleavage of 0.22. A15G C39A U66C showed a self-cleavage of 0.18. With A15G C39A U76A the self-cleavage was 0.21. Variant A15G C39G A56G U60A has a self-cleavage of 0.11. Work on A15G C39G U58C U76A C81U yielded a self-cleavage of 0.01. Variant A15G C39U A45G A64U has a self-cleavage of 0.1. Variant A15G C39U A57G U60C U76A has a self-cleavage of 0.18. For A15G C39U A64G, the self-cleavage was 0.34. Work on A15G C39U A65G U78G yielded a self-cleavage of 0.14. Variant A15G C39U A75C has a self-cleavage of 0.61. With A15G C39U U60C the self-cleavage was 0.46. With A15G C39U U69C U72A A75U the self-cleavage was 0.07. For A15G C40A A75G, the self-cleavage was 0.26. For A15G C40A U43C U49C G53A A65U U74C, the self-cleavage was 0.15. Variant A15G C40U U41A U51A has a self-cleavage of 0.34. Variant A15G C40U U51A G61C has a self-cleavage of 0.1. For A15G C40U U67C U78C, the self-cleavage was 0.32. A15G C40U U74C gave a self-cleavage of 0.54. For A15G C44A A45G G73U, the self-cleavage was 0.56. Work on A15G C44G U51A G55A U66A U72C yielded a self-cleavage of 0.08. With A15G C44U A57U A64G G70C U80C the self-cleavage was 0.13. Variant A15G C44U U48C C62A has a self-cleavage of 0.24. Variant A15G C44U U51C U76C has a self-cleavage of 0.64. With A15G C44U U69C U74C the self-cleavage was 0.09. Work on A15G C50U U60A U66C yielded a self-cleavage of 0.1. For A15G C59A U72A, the self-cleavage was 0.17. Variant A15G C62G A65G U66C A75G C81A has a self-cleavage of 0.25. With A15G C62U U80A the self-cleavage was 0.24. A15G G16A A18C U49C A64G U78C gave a self-cleavage of 0.05. Variant A15G G16A A21G A28C U67C U72C has a self-cleavage of 0.26. With A15G G16A A64U U80C the self-cleavage was 0.46. With A15G G16A A77U the self-cleavage was 0.13. Work on A15G G16A C71U yielded a self-cleavage of 0.18. Variant A15G G16A U31C U41C U51A U58C U74C has a self-cleavage of 0.11. For A15G G16C A20G A57G U78A, the self-cleavage was 0.05. A15G G16C A65G U69C showed a self-cleavage of 0.17. With A15G G16C U25C A47U C68G U72C the self-cleavage was 0. In the case of A15G G16C U31C U69G, the self-cleavage is reported as 0.2. Work on A15G G16U A18G yielded a self-cleavage of 0.47. A15G G16U U25C A35G U66C U72A U78C showed a self-cleavage of 0.04. A15G G19A C39U A45U U74A showed a self-cleavage of 0.6. A15G G19A G30A U60C gave a self-cleavage of 0.2. Work on A15G G19A U25C U41C yielded a self-cleavage of 0.21. For A15G G19A U51A, the self-cleavage was 0.33. For A15G G19C A28G G30C G36C U51C, the self-cleavage was 0.11. Work on A15G G19C A28U G52A yielded a self-cleavage of 0.22. Variant A15G G19U A56U has a self-cleavage of 0.16. In the case of A15G G19U C38A A75U, the self-cleavage is reported as 0.14. A15G G19U G36U U41C gave a self-cleavage of 0.09. A15G G19U U31A U43C U58C U67A gave a self-cleavage of 0.16. Variant A15G G19U U31A U58C U67A has a self-cleavage of 0.14. Work on A15G G19U U43C U48A yielded a self-cleavage of 0.05. Work on A15G G19U U58G A64U U66C U72A yielded a self-cleavage of 0.07. Variant A15G G22A A47U U54G U66A U78A has a self-cleavage of 0.08. For A15G G22A G30A U48A U72A, the self-cleavage was 0.13. In the case of A15G G22C U41A U60G, the self-cleavage is reported as 0.27. Work on A15G G22C U78C yielded a self-cleavage of 0.21. For A15G G22U U48C U72A A75U, the self-cleavage was 0.12. Variant A15G G24A U67A has a self-cleavage of 0.24. A15G G24A U74C gave a self-cleavage of 0.09. Variant A15G G24C A45G U69C has a self-cleavage of 0.19. Work on A15G G24C A75G yielded a self-cleavage of 0.07. A15G G24C U60C U80C gave a self-cleavage of 0.16. Variant A15G G24C U66C U78C has a self-cleavage of 0.11. With A15G G24U U26C A35G the self-cleavage was 0.17. A15G G24U U49A U66C U80C showed a self-cleavage of 0.12. With A15G G30A A35G the self-cleavage was 0.25. Work on A15G G30A A45G G46A U66A U78C yielded a self-cleavage of 0.23. For A15G G30A A57G, the self-cleavage was 0.12. A15G G30A U58C gave a self-cleavage of 0.11. In the case of A15G G30C A35U A57G U58A U66C U80C, the self-cleavage is reported as 0.06. Variant A15G G30C A57G has a self-cleavage of 0.22. A15G G30C U43C A57G gave a self-cleavage of 0.16. In the case of A15G G30U G46A C62U U69A, the self-cleavage is reported as 0.17. In the case of A15G G30U U31C G33A U54C A57G, the self-cleavage is reported as 0.05. With A15G G30U U31G U41G A47G the self-cleavage was 0.08. In the case of A15G G30U U58C A75G, the self-cleavage is reported as 0.11. In the case of A15G G30U U66C, the self-cleavage is reported as 0.34. Work on A15G G30U U69G yielded a self-cleavage of 0.05. Work on A15G G33A A45G C50U U66C U80C yielded a self-cleavage of 0.11. A15G G33A A47G U54C A57G C68A gave a self-cleavage of 0.11. A15G G33A C37U A57G showed a self-cleavage of 0.08. For A15G G33A U48C U76C, the self-cleavage was 0.08. Variant A15G G33A U49A A64U U66C has a self-cleavage of 0.15. For A15G G33A U49C A56U, the self-cleavage was 0.12. For A15G G33A U69A U76C A77U, the self-cleavage was 0.11. A15G G33C U54C A65G U66C gave a self-cleavage of 0.11. A15G G33U A35G gave a self-cleavage of 0.23. A15G G33U C62U U78C showed a self-cleavage of 0.05. A15G G33U U60C C79U gave a self-cleavage of 0.14. Variant A15G G36A A45G U60C has a self-cleavage of 0.09. With A15G G36C U60C U69A the self-cleavage was 0.04. For A15G G36U A45G U67A, the self-cleavage was 0.12. In the case of A15G G42A A47U A56G U69C, the self-cleavage is reported as 0.16. A15G G42A U43C A45G showed a self-cleavage of 0.19. With A15G G42A U49A U80C the self-cleavage was 0.08. Variant A15G G42A U69A has a self-cleavage of 0.16. A15G G42C G52A G63U G70A A77U U80C showed a self-cleavage of 0.19. Work on A15G G46A A47U U78C yielded a self-cleavage of 0.3. With A15G G46A G55A A65G the self-cleavage was 0.08. In the case of A15G G46A U48C A64G, the self-cleavage is reported as 0.1. Variant A15G G46C A47G has a self-cleavage of 0.12. In the case of A15G G46U A56U, the self-cleavage is reported as 0.26. Work on A15G G46U A57U yielded a self-cleavage of 0.09. A15G G46U A64G U74A gave a self-cleavage of 0.16. A15G G52A A75U U80C gave a self-cleavage of 1.05. For A15G G52C U80C, the self-cleavage was 1.08. Work on A15G G52U U54A yielded a self-cleavage of 1.13. A15G G53A A56G showed a self-cleavage of 0.39. Work on A15G G53A A56G U60C U67C yielded a self-cleavage of 0.21. With A15G G53U U72C the self-cleavage was 1.25. A15G G63A U69A U80C gave a self-cleavage of 0.19. A15G G63A U80A gave a self-cleavage of 1.16. A15G G63C U67C gave a self-cleavage of 0.2. In the case of A15G G63U A65G, the self-cleavage is reported as 0.28. A15G U25A A28G A57U U58C U67A showed a self-cleavage of 0.06. In the case of A15G U25A A28G C39U C71U, the self-cleavage is reported as 0.08. In the case of A15G U25A A28G C68A U74C, the self-cleavage is reported as 0.18. A15G U25A A28G U51A A56U gave a self-cleavage of 0.1. A15G U25A A64U showed a self-cleavage of 0.18. In the case of A15G U25A A65G, the self-cleavage is reported as 0.5. A15G U25A U26C gave a self-cleavage of 0.13. For A15G U25A U26C A35U A45U A77G, the self-cleavage was 0.14. A15G U25A U31A U43C C50A showed a self-cleavage of 0.22. Work on A15G U25A U41A U43C U51C U72C yielded a self-cleavage of 0.35. For A15G U25C A28G G55A, the self-cleavage was 0.1. A15G U25C A35U A64U U66C U78A gave a self-cleavage of 0.19. In the case of A15G U25C A45G U67C, the self-cleavage is reported as 0.16. A15G U25C A47G gave a self-cleavage of 0.18. Work on A15G U25C A47G A56G yielded a self-cleavage of 0.4. Variant A15G U25C A47G U60A has a self-cleavage of 0.29. A15G U25C A47G U69C gave a self-cleavage of 0.26. Variant A15G U25C A47U U72C A77G has a self-cleavage of 0.23. For A15G U25C A56G A64G, the self-cleavage was 0.11. For A15G U25C A56U, the self-cleavage was 0.47. A15G U25C A56U U72A gave a self-cleavage of 0.17. Variant A15G U25C A64G A65G U80A has a self-cleavage of 0.4. In the case of A15G U25C A64G U72G, the self-cleavage is reported as 0.08. Variant A15G U25C A64U A65G U72G U74A has a self-cleavage of 0. In the case of A15G U25C A64U U66C, the self-cleavage is reported as 0.41. In the case of A15G U25C A75G, the self-cleavage is reported as 0.25. In the case of A15G U25C A75G U80C, the self-cleavage is reported as 0.17. A15G U25C C27A A56G U66C gave a self-cleavage of 0.16. For A15G U25C C29G A35G, the self-cleavage was 0.08. A15G U25C C29G U54C gave a self-cleavage of 0.29. For A15G U25C C34G A45U C50G, the self-cleavage was 0.17. In the case of A15G U25C C38U A56G U74A, the self-cleavage is reported as 0.14. Work on A15G U25C C40G U51A yielded a self-cleavage of 0.06. A15G U25C C44U U67A gave a self-cleavage of 0.19. With A15G U25C C68G U72C the self-cleavage was 0.2. A15G U25C C71A A77C U80A gave a self-cleavage of 0.06. Work on A15G U25C G30U U31C U72C yielded a self-cleavage of 0.09. A15G U25C G36U A45G gave a self-cleavage of 0.06. In the case of A15G U25C U26C U31A U66C, the self-cleavage is reported as 0.25. For A15G U25C U31A A64G, the self-cleavage was 0.13. A15G U25C U31C A35C gave a self-cleavage of 0. In the case of A15G U25C U41C A65U, the self-cleavage is reported as 0.19. A15G U25C U41G U51A gave a self-cleavage of 0.5. For A15G U25C U48C U69A, the self-cleavage was 0.17. With A15G U25C U58C U72A the self-cleavage was 0.07. A15G U25C U60C G70A gave a self-cleavage of 0.07. A15G U25C U67A gave a self-cleavage of 0.27.
